Ki data for two substances are collected here from patent US20260327262A1, “BICYCLIC PEPTIDE LIGANDS SPECIFIC FOR EPHA2” (BicycleTx Limited, priority 2019, published 2026).

pKi: −log10 of the molar value.

This assay has as its target human EphA2 (Homo sapiens, UniProt P29317). The experiment in a line: Competition Binding Assay (fluorescence polarisation, competition with fluorescent tracer BCY90). How it is done:
Peptides without a fluorescent tag were tested in competition with a peptide with a fluorescent tag and a known Kd.
Peptides were diluted to an appropriate concentration in assay buffer as described in the direct binding assay with a maximum of 5% DMSO, then serially diluted 1 in 2. […] Measurements were conducted, however the gain was determined prior to the first measurement. Data analysis was in Systat Sigmaplot version 12.0 where the mP values were fit to a user defined cubic equation to generate a Ki value: • f=ymax+(ymin−ymax)/Lig*((Lig*((2*((Klig+Kcomp+Lig+Comp−Prot*c)^2−3*(Kcomp*(Lig−Prot*c)+Klig*(Comp−Prot*c)+Klig*Kcomp))^0.5*COS(ARCCOS((−2*(Klig+Kcomp+Lig+Comp−Prot*c)^3+9*(Klig+Kcomp+Lig+Comp−Prot*c)*(Kcomp*(Lig−Prot*c)+Klig*(Comp−Prot*c)+Klig*Kcomp)−27*(−1*Klig*Kcomp*Prot*c))/(2*((((Klig+Kcomp+Lig+Comp−Prot*c)^2−3*(Kcomp*(Lig−Prot*c)+Klig*(Comp−Prot*c)+Klig*Kcomp))^3)^0.5)))/3))−(Klig+Kcomp+Lig+Comp−Prot*c)))/((3*Klig)+((2*((Klig+Kcomp+Lig+Comp−Prot*c)^2−3*(Kcomp*(Lig−Prot*c)+Klig*(Comp−Prot*c)+Klig*Kcomp))^0.5*COS(ARCCOS((−2*(Klig+Kcomp+Lig+Comp−Prot*c)^3+9*(Klig+Kcomp+Lig+Comp−Prot*c)*(Kcomp*(Lig−Prot*c)+Klig*(Comp−Prot*c)+Klig*Kcomp)−27*(−1*Klig*Kcomp*Prot*c))/(2*((((Klig+Kcomp+Lig+Comp−Prot*c)^2−3*(Kcomp*(Lig−Prot*c)+Klig*(Comp−Prot*c)+Klig*Kcomp))^3)^0.5)))/3))−(Klig+Kcomp+Lig+Comp−Prot*c)))). […]

One may read the pKi as the Ki on a negative log10 scale, so that one unit is a factor of ten.

Sequence of human EphA2 (P29317 24-976): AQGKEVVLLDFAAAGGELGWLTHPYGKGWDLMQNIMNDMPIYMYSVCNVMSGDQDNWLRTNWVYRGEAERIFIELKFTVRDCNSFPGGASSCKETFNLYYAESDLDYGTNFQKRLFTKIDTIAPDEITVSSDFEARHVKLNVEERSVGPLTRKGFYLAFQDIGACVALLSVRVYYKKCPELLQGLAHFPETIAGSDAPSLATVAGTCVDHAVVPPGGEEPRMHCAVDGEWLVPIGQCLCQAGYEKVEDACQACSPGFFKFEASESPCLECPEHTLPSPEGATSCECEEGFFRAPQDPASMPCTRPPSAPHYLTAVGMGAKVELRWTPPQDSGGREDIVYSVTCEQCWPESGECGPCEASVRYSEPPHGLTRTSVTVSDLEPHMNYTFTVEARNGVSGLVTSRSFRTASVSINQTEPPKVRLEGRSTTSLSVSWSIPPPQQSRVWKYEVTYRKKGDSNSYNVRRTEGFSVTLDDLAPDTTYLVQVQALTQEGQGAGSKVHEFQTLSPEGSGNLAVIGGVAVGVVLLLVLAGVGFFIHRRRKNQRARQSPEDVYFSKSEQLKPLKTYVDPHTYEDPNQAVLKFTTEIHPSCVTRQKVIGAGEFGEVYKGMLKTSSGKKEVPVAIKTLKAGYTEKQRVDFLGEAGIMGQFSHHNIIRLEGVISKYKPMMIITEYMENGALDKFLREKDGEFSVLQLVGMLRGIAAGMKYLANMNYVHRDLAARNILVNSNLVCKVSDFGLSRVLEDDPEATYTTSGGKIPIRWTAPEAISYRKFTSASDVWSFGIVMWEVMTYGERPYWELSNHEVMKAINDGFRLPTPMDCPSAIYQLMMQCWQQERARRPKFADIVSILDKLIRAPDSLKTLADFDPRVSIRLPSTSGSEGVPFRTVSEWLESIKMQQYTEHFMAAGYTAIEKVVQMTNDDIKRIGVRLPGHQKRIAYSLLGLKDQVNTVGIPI

In turn, “A-[HArg]-D-Ci[HyP]LVNPLCiiLHP[d1Nal]W[HArg]Ciii [BCY13116]” gave a pKi of 8.95.

Turning to “A-[HArg]-D-Ci[HyP]LVNPLCiiL[3,3-DPA]P[dD]W[HArg]Ciii [BCY12866]”, the pKi is 9.61.
